Test results published in paper PMC4683079.
Results are given in words; binding and its absence hold for the method and conditions named. Binding seen in cells or lysates may run through a third protein. Some binding calls cover weakened binding; strength is not graded here. Sequences can lack the tags named with a protein.

The chains behind the UniProt entries cited, without tags or fusion partners. Where a name states a change or a piece, a line headed by the entry shows the natural chain unless it says otherwise.
UniProt Q9Z138: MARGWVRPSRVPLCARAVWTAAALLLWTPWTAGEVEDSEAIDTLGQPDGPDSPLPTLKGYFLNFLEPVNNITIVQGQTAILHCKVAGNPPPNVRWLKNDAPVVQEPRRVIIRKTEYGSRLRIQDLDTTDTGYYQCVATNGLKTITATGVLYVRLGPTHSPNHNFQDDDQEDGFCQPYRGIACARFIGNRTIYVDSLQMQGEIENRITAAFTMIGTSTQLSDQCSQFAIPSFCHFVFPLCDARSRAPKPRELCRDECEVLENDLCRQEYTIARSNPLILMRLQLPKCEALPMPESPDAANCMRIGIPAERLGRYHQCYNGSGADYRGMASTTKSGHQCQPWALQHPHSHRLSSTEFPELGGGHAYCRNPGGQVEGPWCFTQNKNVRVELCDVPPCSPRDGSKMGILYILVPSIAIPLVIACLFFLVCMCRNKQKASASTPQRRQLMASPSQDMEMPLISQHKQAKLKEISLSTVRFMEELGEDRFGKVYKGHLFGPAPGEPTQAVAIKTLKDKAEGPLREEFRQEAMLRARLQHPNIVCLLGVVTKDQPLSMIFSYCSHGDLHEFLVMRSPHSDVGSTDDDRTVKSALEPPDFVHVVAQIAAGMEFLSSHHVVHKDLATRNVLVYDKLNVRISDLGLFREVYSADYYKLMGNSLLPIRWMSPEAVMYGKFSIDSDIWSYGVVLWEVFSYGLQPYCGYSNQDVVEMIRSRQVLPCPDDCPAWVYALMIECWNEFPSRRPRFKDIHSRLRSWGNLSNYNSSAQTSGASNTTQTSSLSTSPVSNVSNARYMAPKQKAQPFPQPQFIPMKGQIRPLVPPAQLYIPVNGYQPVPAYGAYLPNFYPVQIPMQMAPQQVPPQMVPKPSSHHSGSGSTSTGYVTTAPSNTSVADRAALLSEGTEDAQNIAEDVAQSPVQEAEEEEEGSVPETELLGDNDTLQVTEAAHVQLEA

Columns and labels:
[1] = biological target: T1, myc-tagged full-length human PTK7 (PTK7-MT) (human) (UniProt Q13308); test: co-IP; MCF7 cells co-transfected, lysed 48 h later in TBS (50 mM Tris pH 7.5, 150 mM NaCl) with 0.5% NP-40; IP with anti-myc, anti-HA or anti-Flag M2 and Protein A Sepharose at 4°C; five washes with lysis buffer; Western blot
T1 sequence: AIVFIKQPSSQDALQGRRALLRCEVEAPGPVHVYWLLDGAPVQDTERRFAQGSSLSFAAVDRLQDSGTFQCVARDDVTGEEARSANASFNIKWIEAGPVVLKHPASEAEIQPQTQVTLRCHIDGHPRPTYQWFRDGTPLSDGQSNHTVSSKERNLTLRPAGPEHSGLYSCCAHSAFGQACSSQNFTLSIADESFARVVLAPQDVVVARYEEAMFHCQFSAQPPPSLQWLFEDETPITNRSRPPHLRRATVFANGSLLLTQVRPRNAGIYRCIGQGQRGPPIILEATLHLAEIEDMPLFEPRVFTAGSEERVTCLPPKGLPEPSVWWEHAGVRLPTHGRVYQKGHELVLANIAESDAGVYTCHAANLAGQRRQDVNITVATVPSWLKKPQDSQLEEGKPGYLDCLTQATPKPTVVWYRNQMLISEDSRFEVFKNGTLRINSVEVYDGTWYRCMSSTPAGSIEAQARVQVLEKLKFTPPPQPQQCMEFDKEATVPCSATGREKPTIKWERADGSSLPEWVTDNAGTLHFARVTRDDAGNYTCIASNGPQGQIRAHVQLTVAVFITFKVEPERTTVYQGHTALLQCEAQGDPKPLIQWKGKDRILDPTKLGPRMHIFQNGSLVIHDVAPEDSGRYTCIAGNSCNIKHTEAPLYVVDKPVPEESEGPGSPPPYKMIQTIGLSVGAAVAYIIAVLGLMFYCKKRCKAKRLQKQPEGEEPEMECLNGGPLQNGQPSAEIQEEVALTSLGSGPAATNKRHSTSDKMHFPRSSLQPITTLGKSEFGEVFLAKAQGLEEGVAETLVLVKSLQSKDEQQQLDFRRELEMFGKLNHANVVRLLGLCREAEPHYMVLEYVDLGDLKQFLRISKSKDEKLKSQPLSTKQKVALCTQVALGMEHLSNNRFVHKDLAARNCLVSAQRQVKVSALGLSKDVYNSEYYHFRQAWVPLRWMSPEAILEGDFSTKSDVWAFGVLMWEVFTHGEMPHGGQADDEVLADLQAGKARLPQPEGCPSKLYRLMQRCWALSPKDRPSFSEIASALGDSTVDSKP

[2] = biological target: HA-tagged full-length mouse Ror2 (Ror2-HA) (mouse) (UniProt Q9Z138); test: as above
[3] = biological target: secreted extracellular domain of mouse Ror2 (sRor2-HA) (mouse) (UniProt Q9Z138); test: co-IP; data not shown: sRor2-HA as the precipitated protein, co-expressed with PTK7-MT in MCF7 cells

For “secreted extracellular domain of mouse Ror2 (sRor2-HA) (from UniProt Q9Z138 34-403) (domain or fragment)”, the binding [1] was “binds”.

“HA-tagged full-length mouse Ror2 (Ror2-HA) (from UniProt Q9Z138 34-944) (receptor)” was tested, and the binding [1] was “binds”.

“EGFR-EGFP (from UniProt P00533 25-1210) (receptor)” was tested, and the binding [2] was “no binding”.

B1: myc-tagged full-length human PTK7 (PTK7-MT) (receptor, UniProt Q13308 31-1070)
chain: AIVFIKQPSSQDALQGRRALLRCEVEAPGPVHVYWLLDGAPVQDTERRFAQGSSLSFAAVDRLQDSGTFQCVARDDVTGEEARSANASFNIKWIEAGPVVLKHPASEAEIQPQTQVTLRCHIDGHPRPTYQWFRDGTPLSDGQSNHTVSSKERNLTLRPAGPEHSGLYSCCAHSAFGQACSSQNFTLSIADESFARVVLAPQDVVVARYEEAMFHCQFSAQPPPSLQWLFEDETPITNRSRPPHLRRATVFANGSLLLTQVRPRNAGIYRCIGQGQRGPPIILEATLHLAEIEDMPLFEPRVFTAGSEERVTCLPPKGLPEPSVWWEHAGVRLPTHGRVYQKGHELVLANIAESDAGVYTCHAANLAGQRRQDVNITVATVPSWLKKPQDSQLEEGKPGYLDCLTQATPKPTVVWYRNQMLISEDSRFEVFKNGTLRINSVEVYDGTWYRCMSSTPAGSIEAQARVQVLEKLKFTPPPQPQQCMEFDKEATVPCSATGREKPTIKWERADGSSLPEWVTDNAGTLHFARVTRDDAGNYTCIASNGPQGQIRAHVQLTVAVFITFKVEPERTTVYQGHTALLQCEAQGDPKPLIQWKGKDRILDPTKLGPRMHIFQNGSLVIHDVAPEDSGRYTCIAGNSCNIKHTEAPLYVVDKPVPEESEGPGSPPPYKMIQTIGLSVGAAVAYIIAVLGLMFYCKKRCKAKRLQKQPEGEEPEMECLNGGPLQNGQPSAEIQEEVALTSLGSGPAATNKRHSTSDKMHFPRSSLQPITTLGKSEFGEVFLAKAQGLEEGVAETLVLVKSLQSKDEQQQLDFRRELEMFGKLNHANVVRLLGLCREAEPHYMVLEYVDLGDLKQFLRISKSKDEKLKSQPLSTKQKVALCTQVALGMEHLSNNRFVHKDLAARNCLVSAQRQVKVSALGLSKDVYNSEYYHFRQAWVPLRWMSPEAILEGDFSTKSDVWAFGVLMWEVFTHGEMPHGGQADDEVLADLQAGKARLPQPEGCPSKLYRLMQRCWALSPKDRPSFSEIASALGDSTVDSKP
For B1, the binding [3] was “binds” and the binding [2] was “binds”.

B2: TGFß1R-EGFP (receptor, UniProt P36897 34-503)
chain: LQCFCHLCTKDNFTCVTDGLCFVSVTETTDKVIHNSMCIAEIDLIPRDRPFVCAPSSKTGSVTTTYCCNQDHCNKIELPTTVKSSPGLGPVELAAVIAGPVCFVCISLMLMVYICHNRTVIHHRVPNEEDPSLDRPFISEGTTLKDLIYDMTTSGSGSGLPLLVQRTIARTIVLQESIGKGRFGEVWRGKWRGEEVAVKIFSSREERSWFREAEIYQTVMLRHENILGFIAADNKDNGTWTQLWLVSDYHEHGSLFDYLNRYTVTVEGMIKLALSTASGLAHLHMEIVGTQGKPAIAHRDLKSKNILVKKNGTCCIADLGLAVRHDSATDTIDIAPNHRVGTKRYMAPEVLDDSINMKHFESFKRADIYAMGLVFWEIARRCSIGGIHEDYQLPYYDLVPSDPSVEEMRKVVCEQKLRPNIPNRWQSCEALRVMAKIMRECWYANGAARLTALRIKKTLSQLSQQEGIKM
With B2 the binding [2] was “no binding” and the binding [1] was “no binding”.
